Reference: PubChem BioAssay AID686978 (National Center for Advancing Translational Sciences (NCATS), 2013)
Out of some 420,000 compounds screened, about 64,000 (15%) were called active. This list was built around the results that the source calls inconclusive (neither active nor inactive); the mix of calls is not that of the screen. Calls follow the shape of the dose curve; as a rule, active = well fitted inhibition curve with a large enough effect; inconclusive = small, poorly fitted or top-dose-only effect; inactive = flat fitted curve, though single readings scatter. No potency is given beside an inconclusive call; the fits are too rough.

Assay: qHTS for Inhibitors of human tyrosyl-DNA phosphodiesterase 1 (TDP1): qHTS in cells in absence of CPT; also: nearly all actives have a fitted effect of over 55% in size
Conditions: DT40 Tdp1-/- hTDP1 cells, no CPT, ATP luminescence, 48 h; activity change, negative = growth inhibition: at 46.2 µM (top of the series) unless noted
In short: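 No-CPT arm: Tdp1-/-;hTDP1 DT40 cells (400/well) plus compounds, incubated ≥48 hr at 37 °C. Readout CellTiter-Glo luminescence.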
% is scaled to controls: 0 for no effect and ±100 for the full control effect; potency is read from the fitted curve at half-maximal effect; tags tell the direction and shape of the fitted curve.

| SMILES | Potency | activity change, negative = growth inhibition |
| --- | --- | --- |
| COc1ccc2nc(C(F)(F)Cl)c(C#N)c(N)c2c1 | inconclusive [inhibitor, single point] | – |
| Cc1ccc(-c2cc3nc(C)cc(N4CCN(C(=O)c5ccoc5)CC4)n3n2)cc1 | active: 18.4 µM | – |
| CC(C)(C)c1ccc(S(=O)(=O)N[C@H]2CC[C@@H](n3cc(C(=O)N4CCCC4)nn3)CC2)cc1 | inconclusive [inhibitor, partial curve] | – |
| CC(=O)C1=NN(c2ccc(Cl)cc2)C(c2ccc3c(c2)OCO3)N(C(C)=O)N1C (stereo not drawn) | inconclusive [inhibitor, single point] | – |
| Cc1ccc(Nc2c3c(nc4ccccc24)CCC3)cc1F | active: 16.4 µM | – |
| COc1ccc(-n2nc(C(=O)NCC(=O)Nc3cc(OC)c(OC)c(OC)c3)c3ccccc3c2=O)cc1Cl | active: 1.64 µM | – |
| O=C(CSc1nc2c(c(C(F)(F)F)n1)CCc1ccccc1-2)NCc1ccco1 | active: 25.9 µM | – |
| CCc1ccc(-c2nc3cc(NC(=O)c4ccc(F)cc4)ccc3o2)cc1 | – | inconclusive: -32.6% [inhibitor] |
| Fc1ccc(CN2C3=NCCCN3c3ccccc32)cc1 | inconclusive [inhibitor, single point] | – |
| Cc1ccc(CNC(=O)CCN2C(=O)C(C)Oc3ccc(C)cc32)cc1 (stereo not drawn) | inconclusive [inhibitor, single point] | – |
| O=C(OCC(=O)N1CCCC1)c1cc(Cl)ccc1[N+](=O)[O-] | – | inactive: -20.3% |
| O=C(NCc1cccs1)C1CC(c2ccccc2O)=NO1 (stereo not drawn) | inconclusive [inhibitor, single point] | – |
| C=CCOc1ccc(/C=C2\SC(=S)N(CCC(=O)O)C2=O)cc1 | – | inactive: -18.1% |
| Cc1cccc(COc2ccc(-c3cc(C(F)(F)F)n4nc(C)cc4n3)cc2)c1 | inconclusive [inhibitor, single point] | – |
| COc1cc(C(=O)NCC2(c3ccccc3)CCCC2)cc(OC)c1OC | active: 14.6 µM | – |
| COc1cccc(C(=O)O[C@H]2[C@H](C)NS(=O)(=O)[C@H]3C[C@@H]4C=C[C@]23O4)c1 | inactive | – |
| CC(=O)N1c2ccc(S(=O)(=O)N3CCCC3C(=O)Nc3cccc(F)c3)cc2CC1C (stereo not drawn) | inconclusive [inhibitor, single point] | – |
| N#Cc1cccnc1N1CCN(C(=O)c2cccc3c2C(=O)c2ccc(Cl)cc2S3(=O)=O)CC1 | active: 16.4 µM | – |
| O=C1C2CCCCN2C(=O)N1CCN1CCN(c2ccc(F)cc2)CC1 (stereo not drawn) | inconclusive [inhibitor, partial curve, poor fit] | – |
| Cc1ccc(C(C)C)c(OCC(=O)NNC2=CC(=O)CC(C)(C)C2)c1 | inconclusive [inhibitor, single point] | – |
| CC(C)C(=O)N/N=C/c1ccc(OCc2ccccc2)cc1 | – | inconclusive: -33.9% [inhibitor] |
| Cc1ccc(-c2nc3ncccc3o2)cc1NC(=S)NC(=O)c1ccco1 | inconclusive [inhibitor, single point] | – |
| COc1cc(C(=O)Nc2nc3ccc(S(=O)(=O)N4CCOCC4)cc3s2)cc(OC)c1OC | – | inactive: -26.1% |
| Cc1cccc(C)c1NC(=O)CN(C)CC(=O)Nc1ccccc1Oc1ccccc1 | inconclusive [inhibitor, single point] | – |

| SMILES | Potency | activity change, negative = growth inhibition |
| --- | --- | --- |
| COc1ccc(NC(=O)C/C(C)=N/NC(=O)c2ccco2)c([N+](=O)[O-])c1 | – | inactive: -1.41% |
| O=C(Nc1cccc(F)c1)[C@@H]1CCCN1 | – | inactive: 7.69% |
| COC(=O)[C@]12CCCCC=C1N(Cc1ccc3c(c1)OCO3)C(=O)[C@H](CC(=O)NCc1ccccc1)C2 | inconclusive [inhibitor, single point] | – |
| NC(=O)c1ccccc1NC(=O)CCc1ccccc1 | inconclusive [inhibitor, partial curve] | – |
| c1ccc(-c2cc3ncccc3cn2)cc1 | inconclusive [inhibitor, single point] | – |
| COc1ccccc1CNC(=O)CSc1ncc(C(=O)Nc2ccccc2)c(=O)n1C | active: 14.6 µM | – |
| O=C(NCCCN1CCOCC1)c1ccc(S(=O)(=O)Nc2ccccc2F)cc1 | inconclusive [inhibitor, full curve, poor fit] | – |
| CCS(=O)(=O)c1ccc(-c2cccc(NC(=O)c3ccco3)c2)nn1 | inconclusive [inhibitor, single point] | – |
| Cc1ccc(S(=O)(=O)N2CCC(=O)N(CCOCc3cccc(Cl)c3)CC2)cc1 | inconclusive [inhibitor, single point] | – |
| Cc1cn2c(=O)cc(COC(=O)COc3ccc(F)cc3)nc2s1 | – | inactive: -15.3% |
| CN(c1ccccc1C(=O)NC1CC2CCC1C2)S(=O)(=O)c1ccccc1 (stereo not drawn) | – | inactive: -34.4% |
| O=C(c1cnccn1)N1CCC2(CC1)CN(c1ccccn1)C2 | – | inactive: -0.391% |
| CN(CC(=O)Nc1ccc(Cl)c(C(F)(F)F)c1)C(=O)/C=C/c1cccs1 | active: 23.1 µM | – |
| Cn1c(-c2cnn(-c3ccccc3)c2N)n[nH]c1=S | – | inactive: -13.7% |
| COc1ccccc1N(CC(=O)NCCSc1ccccc1)S(=O)(=O)c1ccc(C)cc1 | active: 16.4 µM | – |
| O=C(NCc1ccccc1Cl)C1CCC(=O)N1Cc1ccc(F)cc1 (stereo not drawn) | – | inactive: -10.5% |
| CCOC(=O)C1CCCN(C(=O)c2ccc(Cl)c(S(=O)(=O)N3CCCCCC3)c2)C1 (stereo not drawn) | inconclusive [inhibitor, single point] | – |
| CN(Cc1cccs1)c1ncnc2sccc12 | active: 16.4 µM | – |
| O=C(CCn1ccnc1)Nc1ccc2ccccc2c1 | – | inactive: 4.06% |
| Cc1cc(C)c2nc(NNC(=O)c3ccc(S(=O)(=O)N4CC(C)CC(C)C4)cc3)sc2c1 (stereo not drawn) | active: 5.8 µM | – |
| CCOC(=O)c1c(C)nn(-c2ncccc2NC(=O)CCC(=O)O)c1C | – | inactive: -16.1% |
| CC(C)c1ccc(-c2nc(N3CCCC3)nc3n[nH]c(N)c23)cc1 | inconclusive [inhibitor, single point] | – |
| Cc1ccc(C)c(NC(=O)CSc2nnc(-c3cc(C)[nH]n3)n2N)c1 | – | inactive: 21.3% |
| COc1cc(S(=O)(=O)N2CCOCC2)cc(C(=O)NCC(c2cccs2)N2CCOCC2)c1OC (stereo not drawn) | inconclusive [inhibitor, single point] | – |
